# This is one part of the list. Binding of human antibodies (heavy:light variable regions, tested as scFv in one mRNA-display pool) to influenza hemagglutinin, with or without the stem antibody CR9114 bound first. Score = (mean enrichment − median) / interquartile range of that screen; higher = more enriched, 0 = typical non-binder. Active = above the paper's cut-off per screen: stems 28; unblocked H1 Solomon Islands 5, H1 Michigan 3, H3 5, H5 19, H7 2.85, both B 5; blocked 9, 7, H5 10, H7 10, B Phuket 10, B Lee 11.5. Scores are scaled within each screen and are no affinities; replicates correlate at about 0.6 to 0.9, and antibodies rare in the pool are noisier.
# B1: K77-2A03 (protein)
# chain 1: LVQLQESGPGLVKPSETLSLTCTVSGGSISSSTYYWGWIRQPPGKGLEWIGSIYYTGDTYYNPSLKSRVTISVDSSKNQFSLKLSSLTAADTAVYYCARERAWLRGPFDFWGRGTLVTVSS
# chain 2: DIVMTQSPDSLAVSLGERATINCKSSQSILFSSYNKNHLAWYQQKPGQPPKLLIYWASTRESGVPDRFSGSGSGTDFTLTISSLQAEDVAVYFCQQYYSPPSFTFGQGTKLEIK
# B2: 039-10-4D04 (protein)
# chain 1: QVQLVESGGGVVQPGTSLRLSCVVSGFPFRSYSIHWVRQAPGKGLEWVAVISYDGDNKYYADSVKGRFTISRDNSKKTAYLQMNSLRVDDTAIYFCARDPVEYSSVSYYFLYGMDVWGQGTTVTVSS
# chain 2: QSVLTQPPSVSGAPGQRVTISCTGSSSNIGAGYDVHWYQQLPGTAPKLLIYGNINRPSGVPDRFSGSKSGTSASLAISGLQAEDEGDYYCQSYDNSLLLSVVFGSGTRLTVL
# B3: 009-10-1G06 (protein)
# chain 1: EVQLVETGGGLIQPGGSLRLSCTASKFTVSINYMSWVRQTPGKGLEWVSIIYDDGSTFYADSVRGRFTISRDNSKNTIYLQMNSLRADDTAVYYCARDPGMRGYFDHWGQGTLVTVSS
# chain 2: QSVLTQPPSVSGAPGQRVAISCTGSSSNIGAGYDVHWYQQLPGTAPKLLIYDNNSRPSGVPDRFSGSKSGTSASLAITGLQAEDEADYYCQSYDSGVSGYVFGTGTKVTVL
# B4: antibody 3F01 (protein)
# chain 1: EVQLVESGGGLVLPGRSLTLSCVASGFTYDDYAMHWVRQVPGKGLEWVAGISWDSVSIGYEDSLRGRFTISRDNAKNSLYLQINSLRDEDTAFYYCAKQGEMRGYDYRLHWFFDLWGRGTLVTVSS
# chain 2: EIVLTQSPGTLSLSPGERATLSCRASQSVSSHLVWYQMKPGQAPRLLIYGASSRATGIPDRFSGSGSGTDFTLNIRRLEPEDFAVYFCQQFEDLPITFGRGTRLEIK
# B5: 01.m.01 (protein)
# chain 1: EVQLVESGGGLVQPGWSLRLSCAASGFTFDSHAMHWVRQTPGKGLEWVSGITWSSNEVGYADSVKGRFTTSRDNAKNSLYLQMNSLRLEDTALYYCTTAGGKGNWGRDDYWGQGTLVTVSS
# chain 2: DIHMTQSPSSLSASVGDRVTITCRASQGIRSYLAWYQQKPGKAPKLLIYAASTLQSGVPSRFSGSGSGTDFTLTISSLQPEDFATYYCQQVDDYPYLFAQGTKLEIK
# B6: K77-1F11 (protein)
# chain 1: QVQLVQSAAEVKKPGASVKVSCKASGYSFTSYQVHWVRQAPGQGLEWMGMIIPTPGSINYAQKFQGRVTMTRDTSTNTVYMEVSGLRSDDTAVYYCARRGSYISGHYTYYGMDVWGQGTTVTVSS
# chain 2: EIVLTQSPGTLSLSPGERATLSCRASQSVSNSYLAWYQQRPGQAPRLLFYGASSRATGIPDRFSGYGSGTDFTLTISRLEPEDFAVYYCHHYGGSAGTFGQGTKVEIK
# Molecular target: Influenza A H1N1 A/Michigan/45/2015 hemagglutinin ectodomain
# Test: mRNA display binding score; higher = more enriched on the antigen
# Conditions: antigen blocked with: 2 µM CR9114 IgG
# Description: (§1)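 A pool of natively paired antibodies, displayed as scFv on mRNA, was selected once on antigen-coated beads and sequenced before and after; two replicates.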
row,Binder,mRNA display binding score
1,B1,inactive: 1.16
2,B2,inactive: 0.162
3,B3,active: 152
4,B4,inactive: 1.67
5,B5,inactive: -0.0314
6,B6,inactive: 0.825

# Same assay, conditions: antigen blocked with: nothing
row,Binder,mRNA display binding score
1,B1,inactive: 1.95
2,B2,inactive: 0.202
3,B3,active: 12.3
4,B4,inactive: 1.25
5,B5,inactive: 0.424
6,B6,inactive: 1.11

# Molecular target: Influenza A H1N1 A/Solomon Islands/3/2006 hemagglutinin ectodomain
# Test: as above
# Conditions: antigen blocked with: 2 µM CR9114 IgG
# Description: as §1
row,Binder,mRNA display binding score
1,B1,inactive: 1.92
2,B2,inactive: 0.294
3,B3,active: 33.3
4,B4,inactive: 1.17
5,B5,inactive: 0.00589
6,B6,inactive: 0.475

# Same assay, conditions: antigen blocked with: nothing
row,Binder,mRNA display binding score
1,B1,inactive: 1.09
2,B2,inactive: 0.243
3,B3,active: 31.9
4,B4,inactive: 1.4
5,B5,inactive: -0.0466
6,B6,inactive: 0.652

# Molecular target: Influenza A H3N2 A/Singapore/INFIMH-16-0019/2016 hemagglutinin ectodomain
# Test: as above
# Conditions: antigen blocked with: nothing
# Description: as §1
row,Binder,mRNA display binding score
1,B1,inactive: 1.42
2,B2,inactive: 0.625
3,B3,inactive: -0.234
4,B4,inactive: 2.16
5,B5,inactive: 0.188
6,B6,inactive: 1.09

# Molecular target: Influenza A H5N1 A/Qinghai/1A/2005 hemagglutinin ectodomain
# Test: as above
# Conditions: antigen blocked with: 2 µM CR9114 IgG
# Description: as §1
row,Binder,mRNA display binding score
1,B1,inactive: 0.381
2,B2,inactive: 0.164
3,B3,inactive: 2.42
4,B4,inactive: 2.38
5,B5,inactive: 0.0776
6,B6,inactive: 0.428

# Same assay, conditions: antigen blocked with: nothing
row,Binder,mRNA display binding score
1,B1,inactive: 0.668
2,B2,inactive: 0.204
3,B3,inactive: 1.34
4,B4,inactive: 1.18
5,B5,inactive: -0.278
6,B6,inactive: 0.294

# Molecular target: Influenza A H7N9 A/Shanghai/2/2013 hemagglutinin ectodomain
# Test: as above
# Conditions: antigen blocked with: 2 µM CR9114 IgG
# Description: as §1
row,Binder,mRNA display binding score
1,B1,inactive: 0.767
2,B2,inactive: -0.14
3,B3,inactive: 1.04
4,B4,inactive: 1.54
5,B5,inactive: 0.022
6,B6,inactive: 1.59

# Same assay, conditions: antigen blocked with: nothing
row,Binder,mRNA display binding score
1,B1,inactive: 2.19
2,B2,inactive: 0.516
3,B3,inactive: 0.242
4,B4,inactive: 1.93
5,B5,inactive: 0.411
6,B6,inactive: 1.53

# Molecular target: Influenza B/Lee/1940 hemagglutinin ectodomain
# Test: as above
# Conditions: antigen blocked with: 2 µM CR9114 IgG
# Description: as §1
row,Binder,mRNA display binding score
1,B1,inactive: 0.611
2,B2,inactive: -0.567
3,B3,inactive: 0.118
4,B4,inactive: 9.74
5,B5,inactive: -0.154
6,B6,inactive: 0.3

# Same assay, conditions: antigen blocked with: nothing
row,Binder,mRNA display binding score
1,B1,inactive: 0.155
2,B2,inactive: -0.179
3,B3,inactive: 0.585
4,B4,active: 13.6
5,B5,inactive: -0.384
6,B6,inactive: 0.194

# Molecular target: Influenza B/Phuket/3073/2013 hemagglutinin ectodomain
# Test: as above
# Conditions: antigen blocked with: 2 µM CR9114 IgG
# Description: as §1
row,Binder,mRNA display binding score
1,B1,inactive: 0.643
2,B2,inactive: 0.159
3,B3,inactive: 0.196
4,B4,inactive: 1.32
5,B5,inactive: 0.0928
6,B6,inactive: 0.351

# Same assay, conditions: antigen blocked with: nothing
row,Binder,mRNA display binding score
1,B1,inactive: 0.248
2,B2,inactive: -0.136
3,B3,inactive: 0.384
4,B4,inactive: 0.13
5,B5,inactive: -0.251
6,B6,inactive: 0.242

# Source: the supplement of paper PMC11383711
